Assay in all cases: microbe, parasite or virus in culture
Assay [1] has as its system HIV-1 Y181C RT mutant. The text has this: (§1) The HeLa cell assay described herein is a modified version of Kimpton J. and Emerman M., Detection of replication-competent and pseudotyped human immunodeficiency virus with a sensitive cell line on the basis of activation of an integrated β-galactosidase gene, J. Virol. 66:2232-2239 (1992), in which HIV-1 infection is detected by the activation of an HIV-LTR driven β-galactosidase reporter that is integrated into the genome of a CD4+ HeLa cell line. Quantitation of β-galactosidase is achieved by measuring the activation of a chemiluminescent substrate (Applied Biosystems). The concentration of each compound required to inhibit 50% (IC50) of the HIV-1 induced β-galactosidase signal, relative to untreated controls, is determined for each isogenic, recombinant virus.
(§2) HeLa-CD4-LTR-β-gal cells are propagated in DMEM containing 10% fetal bovine serum+0.2 mg/ml geneticin+0.1 mg/ml hygromycin B. Cells are split by standard trypsinization when confluency reaches 80% (roughly every 2 to 3 days).
(§3) DNA encoding the HIV-1 reverse transcriptase is subcloned from a M13 phage into a general shuttle vector, pBCSK+, as a −1.65 kbp EcoRI/HindIII ended DNA fragment. The HIV DNA insert of the resulting plasmid, is completely sequenced on both strands prior to use in site directed mutagenesis experiments. Specific amino acid replacements are made using Stratagene Quick Change reagents and mutagenic oligonucleotides. The mutations that are made include K103N, V106A, Y181C, and Y188L. Following mutagenesis, the entire mutant RT coding sequence is verified by sequencing both DNA strands.
(§4) K103N, V106A, Y181C, and Y188L mutant HIV-1 strains and wild type strains are isolated by a modified Recombinant Virus Assay (Kellam P. and Larder B., Recombinant virus assay: a rapid, phenotypic assay for assessment of drug susceptibility of human immunodeficiency virus type 1 isolates, Antimicrobial Agents and Chemotherapy, 38:23-30, 1994). Ten million MT4 T-cells (maintained in RPMI containing 10% fetal bovine serum, split 1:5 every 5 to 6 days) are co-transfected with EcoRI/HindIII digested mutant RT plasmid and Bst EII-digested HIV-1HXB2ΔRT DNA in the presence of DMRIE-C transfection reagent (Gibco) according to supplier's recommended protocol. Each mutant RT coding sequence is crossed into the RT-deleted HIV-1 viral DNA backbone by in vivo homologous recombination. Transfected cell cultures are expanded and monitored until syncitia formation and CPE are extensive. Virus is harvested by clear spin of the culture supernatants, filtration of the supernatants through a 0.45 micron membrane and frozen at −80° C. as primary stocks. Recombinant progeny virus is sequenced in the RT region to confirm the mutant genotype. Some virus stocks require further expansion by infection of MT4 cells, harvested as above and stored as frozen aliquots. All stocks are titered in HeLa MAGI cells for assay.
(§5) HIV-1 virus stocks are titered in the HeLa-CD4-LTR-β-gal assay system to establish the appropriate infecting dose. The endpoint for this assay is relative light units (RLUs), and titer is recorded as RLUs/ml. Virus stocks are diluted (serial 1:2) into DMEM containing 10% FBS plus 25 ug/ml DEAE-dextran and assayed as described in the “Experimental Protocol” section below without test compound.
(§6) • 1. Seed 96-well plate(s) (Costar #3904) with HeLa-CD4-LTR-β-gal @ 3×10^3 cells per well in 100 ul DMEM containing 10% FBS. Incubate @ 37° C., 5% CO2 overnight. Day 2 • 1. Thaw virus stock in a water bath (room temperature) and dilute into DMEM+10% FBS+25 ug/ml DEAE-dextran to an infectious dose of approximately 10 million RLU/ml. The dilution of virus will vary depending on the titer of the stock (see “Titering of virus stocks” above). • 2. Remove all of the media from every well with an 8 or 12-channel manifold aspirator. Work with one plate at a time to prevent drying of the HeLa-CD4-LTR-β-gal monolayer. Add 35 ul (approximately 350,000 total RLUs) of diluted virus to each well. […]

The subject of assay [2] is HIV-1 K103N RT mutant.
From the text: as §1, §2, §3, §4, §5, §6

In assay [3] the test system is HIV-1 V106A RT mutant.
From the text: as §1, §2, §3, §4, §5, §6

Where [4] appears, read: Human immunodeficiency virus 1, HeLa, read-out: Y181C activity level, HeLa-CD4-LTR-β-gal cells, Y181C virus.
Setting [5] is: Human immunodeficiency virus 1, HeLa, read-out: K103N activity level, HeLa-CD4-LTR-β-gal cells, K103N virus.
[6] abbreviates: Human immunodeficiency virus 1, HeLa, read-out: V106A activity level, HeLa-CD4-LTR-β-gal cells, V106A virus.

Structures can show the parent of a compound that is named as a salt. Where two headings read alike, the source gives them in different places.

This is an account of results in patent US8304419B2, “Chemical compounds” (priority 2007, dated 2012).

In the case of `Cc1c(C(=O)NCc2ccc(Cl)c(Oc3cc(Cl)cc(C#N)c3)c2F)[nH]c2ccccc12` [Example 39, N-({4-chloro-3-[(3-chloro-5-cyanophenyl)oxy]-2-fluorophenyl}methyl)-3-methyl-1H-indole-2-carboxamide], the IC50 in assay [1] (setting [4]), in assay [2] (setting [5]) and in assay [3] (setting [6]) was 10 to 1000 nM each time.

In the case of `Cc1c(C(=O)NCc2ccc(Cl)c(Oc3cc(Cl)cc(C#N)c3)c2F)[nH]c2ccc(Cl)cc12` [Example 40, 5-chloro-N-({4-chloro-3-[(3-chloro-5-cyanophenyl)oxy]-2-fluorophenyl}methyl)-3-methyl-1H-indole-2-carboxamide], the IC50 in assay [1] (setting [4]), in assay [2] (setting [5]) and in assay [3] (setting [6]) was 10 to 1000 nM each time.

For `N#Cc1cc(Cl)cc(Oc2c(Cl)ccc(CNC(=O)c3cc4cc(F)ccc4[nH]3)c2F)c1` [Example 41, N-({4-chloro-3-[(3-chloro-5-cyanophenyl)oxy]-2-fluorophenyl}methyl)-5-fluoro-1H-indole-2-carboxamide], the IC50 in assay [1] (setting [4]) was 10 to 1000 nM; in assay [2] (setting [5]), 10 to 1000 nM; in assay [3] (setting [6]), greater than 1000 nM.

For `COc1ccc(C(=O)NCc2ccc(Cl)c(Oc3cc(Cl)cc(C#N)c3)c2F)cn1` [Example 42, N-({4-chloro-3-[(3-chloro-5-cyanophenyl)oxy]-2-fluorophenyl}methyl)-6-(methyloxy)-3-pyridinecarboxamide], the IC50 in assay [1] (setting [4]), in assay [2] (setting [5]) and in assay [3] (setting [6]) was greater than 1000 nM throughout.

As for `N#Cc1cc(Cl)cc(Oc2c(Cl)ccc(CNC(=O)c3cc4ccc(OCc5ccccc5)cc4[nH]3)c2F)c1` [Example 43, N-({4-chloro-3-[(3-chloro-5-cyanophenyl)oxy]-2-fluorophenyl}methyl)-6-[(phenylmethyl)oxy]-1H-indole-2-carboxamide], the IC50 in assay [1] (setting [4]) was greater than 1000 nM; in assay [2] (setting [5]), 10 to 1000 nM; in assay [3] (setting [6]) it was greater than 1000 nM.

`N#Cc1cc(Cl)cc(Oc2c(Cl)ccc(CNC(=O)c3cc4c5c(ccc4[nH]3)N(C(N)=O)CC5)c2F)c1` [Example 44, N^2-({4-chloro-3-[(3-chloro-5-cyanophenyl)oxy]-2-fluorophenyl}methyl)-7,8-dihydropyrrolo[3,2-e]indole-2,6(3H)-dicarboxamide]: the IC50 in assay [1] (setting [4]) is 10 to 1000 nM; in assay [2] (setting [5]), less than 10 nM; in assay [3] (setting [6]), 10 to 1000 nM.

For the compound `Cn1c(C(=O)NCc2ccc(Cl)c(Oc3cc(Cl)cc(C#N)c3)c2F)cc2ccccc21` [Example 45, N-({4-chloro-3-[(3-chloro-5-cyanophenyl)oxy]-2-fluorophenyl}methyl)-1-methyl-1H-indole-2-carboxamide], the IC50 in assay [1] (setting [4]), in assay [2] (setting [5]) and in assay [3] (setting [6]) was greater than 1000 nM throughout.

As for `COc1cc2cc(C(=O)NCc3ccc(Cl)c(Oc4cc(Cl)cc(C#N)c4)c3F)[nH]c2cn1` [Example 46, N-({4-chloro-3-[(3-chloro-5-cyanophenyl)oxy]-2-fluorophenyl}methyl)-5-(methyloxy)-1H-pyrrolo[2,3-c]pyridine-2-carboxamide trifluoroacetate], the IC50 in assay [1] (setting [4]), in assay [2] (setting [5]) and in assay [3] (setting [6]) was 10 to 1000 nM in each case.

Take `N#Cc1cc(Cl)cc(Oc2c(Cl)ccc(CNC(=O)c3cc4ccccc4o3)c2F)c1` [Example 47, N-({4-chloro-3-[(3-chloro-5-cyanophenyl)oxy]-2-fluorophenyl}methyl)-1-benzofuran-2-carboxamide trifluoroacetate]: the figures for the IC50 in assay [1] (setting [4]), in assay [2] (setting [5]) and in assay [3] (setting [6]) were 10 to 1000 nM, 10 to 1000 nM and greater than 1000 nM, respectively.

As for `Cc1c(C(=O)NCc2ccc(Cl)c(Oc3cc(Cl)cc(C#N)c3)c2F)oc2ccccc12` [Example 48, N-({4-chloro-3-[(3-chloro-5-cyanophenyl)oxy]-2-fluorophenyl}methyl)-3-methyl-1-benzofuran-2-carboxamide trifluoroacetate], the IC50 in assay [1] (setting [4]), in assay [2] (setting [5]) and in assay [3] (setting [6]) was 10 to 1000 nM throughout.

Turning to `N#Cc1cc(Cl)cc(Oc2c(Cl)ccc(CNC(=O)c3cc4cc(Cl)ccc4o3)c2F)c1` [Example 49, 5-chloro-N-({4-chloro-3-[(3-chloro-5-cyanophenyl)oxy]-2-fluorophenyl}methyl)-1-benzofuran-2-carboxamide trifluoroacetate], the IC50 in assay [1] (setting [4]), in assay [2] (setting [5]) and in assay [3] (setting [6]) was greater than 1000 nM each time.

As to `N#Cc1cc(Cl)cc(Oc2c(Cl)ccc(CNC(=O)c3cc4cc([N+](=O)[O-])ccc4o3)c2F)c1` [Example 50, N-({4-chloro-3-[(3-chloro-5-cyanophenyl)oxy]-2-fluorophenyl}methyl)-5-nitro-1-benzofuran-2-carboxamide trifluoroacetate], the IC50 was greater than 1000 nM in assay [1] (setting [4]), 10 to 1000 nM in assay [2] (setting [5]) and greater than 1000 nM in assay [3] (setting [6]).

Regarding `N#Cc1cc(Cl)cc(Oc2c(Cl)ccc(CNC(=O)c3cc4cc(Cl)ccc4s3)c2F)c1` [Example 51, 5-chloro-N-({4-chloro-3-[(3-chloro-5-cyanophenyl)oxy]-2-fluorophenyl}methyl)-1-benzothiophene-2-carboxamide trifluoroacetate], the IC50 in assay [1] (setting [4]), in assay [2] (setting [5]) and in assay [3] (setting [6]) was greater than 1000 nM in each case.

Turning to `Cc1ccc2[nH]c(C(=O)NCc3ccc(Cl)c(Oc4cc(Cl)cc(C#N)c4)c3F)c(C)c2c1` [Example 52, N-({4-chloro-3-[(3-chloro-5-cyanophenyl)oxy]-2-fluorophenyl}methyl)-3,5-dimethyl-1H-indole-2-carboxamide trifluoroacetate], the IC50 in assay [1] (setting [4]), in assay [2] (setting [5]) and in assay [3] (setting [6]) was 10 to 1000 nM each time.

For `N#Cc1cc(Cl)cc(Oc2c(Cl)ccc(CNC(=O)c3[nH]c4ccccc4c3Br)c2F)c1` [Example 53, 3-bromo-N-({4-chloro-3-[(3-chloro-5-cyanophenyl)oxy]-2-fluorophenyl}methyl)-1H-indole-2-carboxamide], the IC50 in assay [1] (setting [4]), in assay [2] (setting [5]) and in assay [3] (setting [6]) was 10 to 1000 nM throughout.

On to `N#Cc1cc(Cl)cc(Oc2c(Cl)ccc(CNC(=O)c3[nH]c4ccccc4c3Br)c2F)c1` [Example 54, 3-bromo-N-({4-chloro-3-[(3-chloro-5-cyanophenyl)oxy]-2-fluorophenyl}methyl)-1H-indole-2-carboxamide trifluoroacetate], for which the IC50 in assay [1] (read-out: Y181C activity level, HeLa-CD4-LTR-β-gal cells, Y181C virus, trifluoroacetate) is less than 10 nM; in assay [2] (read-out: K103N activity level, HeLa-CD4-LTR-β-gal cells, K103N virus, trifluoroacetate), less than 10 nM; in assay [3] (read-out: V106A activity level, HeLa-CD4-LTR-β-gal cells, V106A virus, trifluoroacetate) it was less than 10 nM.

As to `N#Cc1cc(Cl)cc(Oc2c(Cl)ccc(CNC(=O)c3[nH]c4cc(Cl)ccc4c3Cl)c2F)c1` [Example 55, 3,6-dichloro-N-({4-chloro-3-[(3-chloro-5-cyanophenyl)oxy]-2-fluorophenyl}methyl)-1H-indole-2-carboxamide trifluoroacetate], the IC50 in assay [1] (setting [4]), in assay [2] (setting [5]) and in assay [3] (setting [6]) was 10 to 1000 nM each time.
